Among all 150,000 compounds or so, about 540 (0.36%) showed an effect of 50% or more. This is one part of the list.

The % Inhibition is the change of the read-out against control, counted positive when it falls.

The subject of the assay is Plasmodium falciparum. As to the kind of experiment: Primary screen in NF54 nanoGlo assay, in single point, at 2uM, 72h; a lower Z score goes with more inhibition. It is filed as functional, Erythrocyte. The note with it: timepoint 72 hour.
For `Cc1cc(C)nc(Nc2cccc(NC(=O)COc3ccc(Cl)cc3)c2)n1`, the “% Inhibition” value is recorded as -13% and the Z score is on record as 1.68.
The like results for `CC(C)c1cc(C(=O)N2CCc3ccccc3C2)no1` were, in that order, -1% and 0.08.
With `Nc1cc(N2CCn3nc(CNC(=O)C4CCCC4)cc3C2)nc(N)n1`, the “% Inhibition” value was -6% and the Z score came out at 0.81.
On the same counts, the results for `Cc1c(C(=O)N2CCCCCC2)c(S(=O)(=O)N(C(C)C)C2CCCCC2)c(C)n1C` are -11% and 2.03.
On the same counts, the results for `CCN(CC)S(=O)(=O)NCc1ccc(OC)c(OC)c1` are 10% and -1.29.
With `CC1CCN(C(=O)c2cccc(-c3ccc(Oc4ccc(N)cn4)cc3)c2)CC1`, the “% Inhibition” value was -19% and the Z score was found to be 2.6.
Take `CCOc1ccc(N([C@@H](C)C(=O)Nc2ccccc2C(=O)NCc2ccco2)S(C)(=O)=O)cc1`: the “% Inhibition” value was -15% and the Z score worked out at 1.76.
The like results for `Cc1nnc(NC(=O)NCc2ccc(N3CCCCC3)nc2)s1` were, in that order, 9% and -1.15.
On to `CN(C(=O)CCc1cncc(F)c1)c1cccc(S(C)(=O)=O)c1`, for which the “% Inhibition” value is listed as -8% and the Z score was determined as 1.55.
The like results for `CC(C)(C)C1CCc2[nH]nc(C(=O)NCC3CC4C=CC3C4)c2C1` (centres undefined) were, in that order, -11% and 1.33.
On the same counts, the results for `CC(=O)N[C@H]1CCN(C(=O)c2coc(COc3cccc4cccnc34)n2)C1` are -2% and 0.45.
As to `CC1CCC2(CC1)NC(=O)N(Cc1cc(Cl)c3c(c1)OCCO3)C2=O` (centres undefined), the “% Inhibition” value is 7% and the Z score is -0.8.
On the same counts, the results for `Cc1ccc(S(=O)(=O)N2CCN(C(=O)CCc3cnccn3)CC2)cc1` are -5% and 0.74.
Consider `Cc1c(NC(=O)c2cc3c(s2)CCCC3)c(=O)n(-c2ccccc2)n1C`, for which the “% Inhibition” value is -1% and the Z score is listed as 0.1.
As to `CC(=O)C[n+]1ccc2ccccc2c1Cc1ccccc1`, the “% Inhibition” value is reported as -1% and the Z score was 0.1.
On the same counts, the results for `COc1cc(C(=O)NCC(=O)n2nc(C)cc2C)cc(OC)c1OC` are -5% and 0.85.
In the case of `COc1cc(C(=O)N2CCC[C@H]2c2nonc2C)ccc1OC1CCN(C(C)=O)CC1`, the “% Inhibition” value is given as -7% and the Z score is recorded as 1.23.
Turning to `COc1ncccc1NC(=O)c1cccc(CN2[C@@H]3CC[C@H]2C[C@@H](O)C3)c1`, the “% Inhibition” value is listed as -22% and the Z score was determined as 2.49.
On the same counts, the results for `CCC1CN(c2ncnc3c2oc2ccccc23)CC(C)[S+]1[O-]` (centres undefined) are 1% and -0.16.
For `CC(C)c1cnc(NCc2cscn2)s1`, the “% Inhibition” value is on record as -8% and the Z score worked out at 1.15.
In the case of `N#Cc1c2c(c[nH]c1=O)CC1(CC2)OCCCCO1`, the “% Inhibition” value is given as -10% and the Z score worked out at 1.89.
Turning to `Cc1nccn1CCC1CCN(C(=O)c2cnn(C(C)C)c2)CC1`, the “% Inhibition” value is on record as -11% and the Z score worked out at 1.44.
In the case of `CC(C)(C)c1nnc(N2CC3CN4CCCCC4C3C2)s1` (centres undefined), the “% Inhibition” value is -4% and the Z score is 0.45.
On the same counts, the results for `O=C(c1ccc(OC(F)F)cc1)N1CCN(c2nc[nH]n2)CC1` are -13% and 1.35.
Consider `CCCCNC(=O)CN1CCn2nc(-c3ccc(Cl)cc3)cc2C1=O`, for which the “% Inhibition” value is -14% and the Z score was 1.86.
Turning to `Cc1cccc(C(=O)Nc2ccc3c(c2)OC2(CCCCC2)O3)n1`, the “% Inhibition” value is 3% and the Z score is given as -0.36.
As for `O=C(Nc1nc2c(s1)CCCC2)c1ccsc1`, the “% Inhibition” value is -6% and the Z score was determined as 0.8.
On to `CC(C)n1nccc1NC(=O)c1ccnc(C2CC2)c1`, for which the “% Inhibition” value is on record as -5% and the Z score is listed as 0.65.
Consider `CS(=O)(=O)[C@H]1CCCN(c2cccnc2C#N)C1`, for which the “% Inhibition” value is given as -13% and the Z score was 1.65.
On to `N#CC1(NC(=O)[C@@H]2CC(c3ccccc3)=NO2)CCCC1`, for which the “% Inhibition” value is 1% and the Z score is -0.13.
The like results for `CC1CN(C[C@@H](O)c2ccccc2)CC(CO)O1` (some centres undefined) were, in that order, -12% and 2.
On the same counts, the results for `Cc1ccc(CNS(=O)(=O)c2cc(-c3nc(C)c(C(=O)N4CCCC4)s3)n(C)c2)o1` are 6% and -0.68.
As to `CC(C)N(C)c1ccc(NC(=O)N2CCOCC3(CCOCC3)C2)cc1F`, the “% Inhibition” value was -8% and the Z score turned out to be 1.17.
On the same counts, the results for `CN(C)[C@H]1CCN(CC(=O)NC2(c3cc(F)ccc3F)CC2)C1` are 8% and -1.27.
On the same counts, the results for `Fc1cccc(F)c1-n1c(CN2CCCCC2)csc1=S` are 38% and -4.91.
On the same counts, the results for `CN(Cc1cnn(C)c1)Cc1cc(Br)cc2c1OCC2` are -3% and 0.29.
As to `CCN(CCC1CCN(C(=O)Nc2ccc(OC3CCOCC3)c(C)c2)CC1)CC(C)C`, the “% Inhibition” value came out at 37% and the Z score is on record as -5.74.
On the same counts, the results for `CC(C)CCN(Cc1c(-c2ccccc2)noc1N1CCN(C)CC1)C(=O)c1ccc(Cl)cc1` are -1% and 0.14.
The like results for `CC(C)c1cc(CN(C)C(=O)c2ccc3nnnn3c2)on1` were, in that order, -15% and 1.88.
The like results for `COc1ccc2[nH]cc([C@@H](CCc3ccccc3)CC(=O)Nc3ccccc3)c2c1` were, in that order, -5% and 0.68.
Turning to `CCN(CC)CCN(CC(C)C)c1ccc2nnc(C(F)(F)F)n2n1`, the “% Inhibition” value came out at 0% and the Z score was -0.02.
`CN1CCN(C(=O)c2cn(CCN(C)S(=O)(=O)c3cccc(C(F)(F)F)c3)nn2)CC1`: the “% Inhibition” value is on record as -12% and the Z score amounted to 1.64.
